From the supplement of paper PMC10126150 come the findings set out here.

Values marked as one replicate rest on one cluster of the flow cell; about a third of the high ones do not repeat.
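Further: ATP exposure 15 min at 22 °C before imaging.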

In this series the test system is ATP. As to the kind of experiment: switch fluorescence ratio, 500 uM ATP over buffer (Cy3 cluster intensity, sum of 5 cycles each) (fold (ratio)); higher = stronger signal-on switching upon ATP binding; sequences stand for … in TCGTCGGCAGCGTCAGATGTGTATAAGAGACAGTTTTTTTTTTTTTTTTTTTTTTTTT…TC. Conditions: aptamer strand: ATP DNA aptamer (quencher-CACCTGGGGGAGTATTGCGGAGGAAGG + anchor), 100 nM annealed; ATP concentration: 500 uM; one replicate. Summed up:
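Values give the fluorescence ratio for each switch-domain sequence, averaged from per-cluster ratios of summed target-cycle to summed buffer-cycle Cy3 intensity. The Cy3-labelled switching-strand clusters sat on a modified Illumina MiSeq flow-cell, were annealed to 100 nM quencher-labelled ATP aptamer, and were imaged in selection buffer, then after 15 min with 500 uM ATP at 22 °C. Five cycles ran with NaOH stripping and re-annealing between them, and clusters outside 100-1000 RFU were excluded.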
As to TTCGATGATC, the switch fluorescence ratio came out at 0.977. As to TCTTTATCGT, the switch fluorescence ratio was 1.01. Next, TGCGTTTGGT: 1.01; AAGCAAGGAT: 1.56; TACTGCGGTA: 0.996. With GCATATTCAG, the switch fluorescence ratio came to 0.967. Next, ACGAAGCCGG: 1.1.

With TGCACCAAAT, the switch fluorescence ratio stood at 1.21.

For CGGAATTGAT, the switch fluorescence ratio is 0.982. Take AAATTGGCTG: the switch fluorescence ratio was 1.03. As for ACGGGAACAT, the switch fluorescence ratio was found to be 1.06. In the case of AATAAGTC, the switch fluorescence ratio was 0.989. Next, GTTGTAGAGC: 0.978; GGAATAAATC: 0.975; CGGCGCAGGT: 1.09. Next, TAGACTAACT: 1.12; ACCTCATATG: 1.01.

Take TATGACGATA: the switch fluorescence ratio is 1.04. As for ATCTATACGT, the switch fluorescence ratio was 1.03. Then ACAGGTTTG, with 1.04; and GGAACTCCAA, with 0.997.

TTGAAACGTT: the switch fluorescence ratio came out at 0.939. As to CAGGCACGTT, the switch fluorescence ratio was 0.976.

Regarding TCACAGGTAG, the switch fluorescence ratio stood at 1.37. For the sequence CGATCCCGCA, the switch fluorescence ratio is 1.2. For CTGAGCAGC, the switch fluorescence ratio stood at 0.994. Turning to TAAGGACTGT, the switch fluorescence ratio turned out to be 1.03. Then AGACGGTAAC, with 1.14; and GCTCAGTCGG, with 0.968.

Consider CTTTGGAGAT, for which the switch fluorescence ratio came out at 0.976. Then ATCGGGTCCG, with 0.94; and GTTCTGGAGT, with 1.12. Then GGCCATTGGT, with 1.02; and TGCTGAGTTA, with 0.973. For CGTGGAATGT, the switch fluorescence ratio came out at 1.01. With TTCCTGAGCC, the switch fluorescence ratio amounted to 1.3.

Take CAGCCCTGCG: the switch fluorescence ratio is 0.905.

TAACTTAAAA: the switch fluorescence ratio came to 1.17.

GAGAGGCATG: the switch fluorescence ratio worked out at 1.01. TAACACTTGA: the switch fluorescence ratio amounted to 1.

For the sequence CTTTAACGCC, the switch fluorescence ratio is 1.05.

As for TTTTAGGCGG, the switch fluorescence ratio was determined as 1.01. Next, GAGGAAAAAA: 0.975.

TGGTGCTTGA: the switch fluorescence ratio came out at 1.04. Consider TGGCATCCA, for which the switch fluorescence ratio amounted to 0.982. Turning to TACTGTACGG, the switch fluorescence ratio is 1.5. For CTTATTAGTT, the switch fluorescence ratio stood at 0.951.

In the case of ATTATTAAAC, the switch fluorescence ratio was 1.02. Then AATGAGGAAT, with 0.947.

Regarding CGAAGTGATC, the switch fluorescence ratio worked out at 2.59. Next, GCGGCCCGGA: 1.01; ATACTTGTCT: 0.989; GTTTACTCTA: 1.03. With GTTCTAGTTC, the switch fluorescence ratio amounted to 0.983. In the case of AGCTTGCAAA, the switch fluorescence ratio is 1.04.

Take CTGAGATAT: the switch fluorescence ratio worked out at 1.

On to ATGGTCATTT, for which the switch fluorescence ratio came out at 1.05. ATGCTGATAG: the switch fluorescence ratio came to 0.991.

As to AACGAAACAT, the switch fluorescence ratio is 1.19. In the case of GTGGTCATC, the switch fluorescence ratio was 1.03. Next, GAAGGTCAGC: 1.02; GTATGGGTGC: 1.03.

As for CAGGACCCAG, the switch fluorescence ratio was 0.984.

Consider AGTTACATGG, for which the switch fluorescence ratio stood at 1.04. Regarding TCGTTGCAAA, the switch fluorescence ratio is 1.16. Next, TTCACGAGAA: 1.01; CAATGCCTCA: 1.03.
